Measurements as given in PubChem BioAssay AID1963576 (National Center for Advancing Translational Sciences (NCATS), 2024).
The campaign covered roughly 46,000 compounds. About 60 (0.1%) were called active. Inconclusive results (about 3%) are left out. Calls follow the shape of the dose curve; as a rule, active = well fitted inhibition curve with a large enough effect; inconclusive = small, poorly fitted or top-dose-only effect; inactive = no such curve, though single readings can be large or run the other way. Some of the results follow.

test: Primary qHTS assay for Inhibitors of ovarian cancer metastasis using an organotypic tumor microenvironment (TME) model.; also: nearly all actives have a fitted effect of over 65% in size;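 as to activity change, negative = inhibition: plate controls were DMSO wells for no effect and tomatine positive control wells for full effect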; settings: SKOV3ip1-GFP adhesion/invasion on 3D omental model, fluorescence; series mostly up to 45.8 µM; activity change, negative = inhibition: at the top concentration
How it was run: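 qHTS, 4-pt dose (0.36-46 umol/L); SKOV3ip1-GFP, 1,200 cells/well, no FBS; primary omental fibroblast/mesothelial co-culture 48 h pre-grown; 2 h RT + 16 h 37 C; PBS wash, 4% PFA; GFP count 488/509 nm.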

outcome, inactive:
CCN1CCN(C(=O)c2cnn(-c3ccc(F)cc3F)c2C2CCN(C(=O)OC(C)(C)C)CC2)CC1
COc1ccc(OC)c(NC(=O)c2cnc(Nc3ccc(C)c(Cl)c3)c3ccccc23)c1
CC1CCC(N2CC(=O)N(CCC3=CCCCC3)C(c3ccc(F)cc3)C2=O)CC1 (configuration not stated)
CC(C)(C)OC(=O)N1CCC(c2c(C(=O)N3CCN(c4ccccc4F)CC3)cnn2-c2ccccc2Cl)CC1
CC1=C(C(=O)Nc2ccc(Cl)cc2)C(c2cccs2)n2nc(SCc3cccc(C)c3)nc2N1 (configuration not stated)
CCC(=O)N1CCc2cc(Br)cc(S(=O)(=O)N3CCC(C(=O)Nc4ccccc4F)CC3)c21
CCCCCOc1ccc(Cn2c(=O)oc3ccc(C)cc32)cc1OC
O=c1c(NCc2ccccc2Cl)nccn1-c1ccccc1
CC(=O)N1CCc2cc(S(=O)(=O)NC(CC(C)C)C(=O)NCc3ccccc3Cl)ccc21 (configuration not stated)
CCCOc1ccc(NC(=O)CC2C(=O)N(c3ccc(C)cc3)C(=O)N2CCc2ccncc2)cc1 (configuration not stated)
O=C(Cn1ccn(-c2ccc(F)cc2)c(=O)c1=O)Nc1ccccc1C(F)(F)F
O=C1CC(c2cc(F)cc(F)c2)c2cc3c(cc2N1)OCO3 (configuration not stated)
Cc1cccc(-n2c(N)cc(=O)nc2SCC(=O)Nc2ccc(F)cc2)c1C
Cc1oc(-c2ccc(C(=O)NCCN(C)C)cc2)nc1CS(=O)(=O)c1ccccc1
Cc1ccc(C(=O)NCC(=O)OCc2cc(=O)n3ccsc3n2)cc1
Cc1ccccc1CNC(=O)c1oc2c(c1C)-c1nn(Cc3ccc(Cl)cc3)cc1CC2
COC(=O)CSc1nc2sc3c(c2c(=O)n1-c1ccc(C)cc1)CC(C(C)C)OC3 (configuration not stated)
COC(=O)c1ccccc1NC(=O)c1cnn(-c2ccc(F)cc2)c1-n1cccc1
CCOc1ccc(-n2nc(CO)c(C(=O)NCc3ccccn3)n2)cc1
Cc1ccc(CN2C(=O)c3ccccc3Sc3ccc(C(=O)NCc4ccco4)cc32)cc1
Cc1ccc(S(=O)(=O)N(CC(O)Cn2c3ccccc3c3ccccc32)c2cccc(C(=O)N(C)C)c2)cc1 (configuration not stated)
Cc1cc(C)cc(NC(=O)Cn2c(=O)n(C(C)C)c(=O)c3oc4ccccc4c32)c1
Cc1ccc(-c2nc3ccccn3c2Nc2ccc3c(c2)OCCO3)s1
COc1ccc(NC(=O)C2=C(C)Nc3ncnn3C2c2ccc(C)o2)cc1 (configuration not stated)
Cc1oc2ncnc(N3CCOCC3)c2c1C(=O)N1CCN(c2cccc(C(F)(F)F)c2)CC1
COc1cccc(-c2ccnc3c(-c4ccc(F)cc4)c(C)nn23)c1
CCCn1c(=N)c(C(=O)NCc2cccnc2)cc2c(=O)n3cccc(C)c3nc21
COc1ccc(/C=C/C(=O)N2CCC(c3nc4ccccc4o3)CC2)cc1OC
COc1ccc(OCC(=O)N2CCN(C(=O)c3cc(OC)c(OC)c(OC)c3)CC2)cc1
Cc1cc(C)n2c(Nc3ccccc3C)c(-c3cccs3)nc2n1
COc1cccc(C(=O)Nc2ccc(-n3nncc3-c3ccc(Br)cc3)cc2)c1OC
CCOc1ccc(C2C=C(c3cccc(OC)c3)Nc3nnnn32)cc1 (configuration not stated)
Cc1ccc(CNC(=O)CSc2c3c(nc4ccc(Cl)cc24)CCCC3)cc1
COc1ccc(N2CCN(CCCNC(=O)c3ccc4nc(CCc5ccccc5)oc4c3)CC2)cc1

Activity change, negative = inhibition, inactive:
CC(=O)c1sc(NC(=O)c2c(-c3ccccc3)c(-c3ccccc3)nn(C)c2=O)nc1C 28.2%
CCOc1ccc(NC(=O)c2c(NCc3cccnc3)sc3c2CCC(C)C3)cc1 (configuration not stated) -28.2%
Cc1ccc(NC(=O)c2cnc(SCC(=O)N3CCCc4ccccc43)n(C)c2=O)cc1 0.938%
O=C(CSc1nc2cc3ccccc3cc2[nH]1)Nc1ccc(F)cc1 -7.97%
O=C(NCCc1nc2ccccc2n1Cc1c(F)cccc1Cl)c1ccco1 23.8%
CC(=O)Nc1c(C)nn(-c2ccccc2)c1N1CCC(C(=O)NCc2cccc(Cl)c2)CC1 -9.71%
COc1cc(Cl)c(NC(=O)CCc2nc3cccnc3n2-c2ccccc2)c(OC)c1 6.66%
CCOc1ccc(NC(=O)CCNS(=O)(=O)c2ccc3c(c2)CCCC(=O)N3)cc1 6.84%
CC(=O)Nc1ccc(-c2nnc3n(Cc4ccc(C)cc4)c(=O)c4ccccc4n23)cc1 0.168%
COc1ccc(CNC(=O)CCc2c(C)c3cc4c(C)c(C)oc4cc3oc2=O)cc1 -2.03%
Cc1ccc(C(=O)Nc2nnc(S(=O)(=O)N3CCCCCC3)s2)cc1 -2.17%
CCOC(=O)CCC(=O)Nc1nnc2n1CCS2 22.6%
Cc1c(NC(=O)c2cc(-c3ccccc3O)on2)c(=O)n(-c2ccccc2)n1C 10.8%
CCCCc1nn2c(=O)cc(COC(=O)c3ccccc3NC(=O)c3cccs3)nc2s1 -8%
Cc1c(C(=O)N2CCN(c3ccc(F)cc3)CC2)sc2nc3n(c(=O)c12)CCC3 -6.07%
O=C(Nc1ccc(Cl)cc1Cl)c1cc(S(=O)(=O)N2CCCCCC2)ccc1F -6.98%
Cc1cc(C)cc(C(=O)n2nc(C)c(S(=O)(=O)N3CCCCCC3)c2C)c1 -4.75%
COc1ccc(Br)cc1C(=O)Nc1ccc(-c2nc3ncccc3o2)cc1C 0.459%
O=C(Cn1nc(-c2ccccc2)nc(Cc2ccccc2)c1=O)Nc1ccc(Cl)cc1 6.29%
Cc1cccc(NC(=O)Cn2nnc(C(=O)NCc3ccco3)c2N)c1 -0.922%
CC(C)Cn1c(C2CC(=O)N(c3ccccc3Cl)C2)nc2ccccc21 (configuration not stated) 1.43%
CCc1ccc(NC(=O)CSc2ccc3nc(-c4ccc(OC)cc4)cn3n2)cc1 -4.18%
CCN(CC)S(=O)(=O)c1ccc2c(c1)N(CC(=O)Nc1ccc(OC)cc1)C(=O)CS2 33.8%
CCOc1ccc(Cl)cc1CNCCCSc1nnnn1C 4.42%
c1cc(OCCN2CCCCC2)cc(-c2n[nH]c3ccc(-c4ncn[nH]4)cc23)c1 30.2%
Cc1ccc(CN(C(=O)COc2ccccc2[N+](=O)[O-])c2ccccn2)cc1 7.96%
CCC(CC)C(=O)Nc1nnc(S(=O)(=O)N2CCc3ccccc32)s1 -4.23%
O=C(NCc1ccccc1Cl)C1CCN(C(=O)N2CCOc3ccccc32)CC1 -10.3%
Cc1cccc(OCC(=O)NCCc2nc3ccccc3[nH]2)c1C 1.51%
CCCN(CCC)CCNC(=O)CN1C(=O)COc2ccc(S(=O)(=O)N3CCOCC3)cc21 -1.23%
COc1ccc(C(=O)NCC(c2ccc3c(c2)OCO3)N2CCOCC2)cc1 (configuration not stated) -5.43%
COc1ccc(C2=NN(S(C)(=O)=O)C(c3cn(-c4ccccc4)nc3-c3cccs3)C2)cc1 (configuration not stated) -4.07%
O=C(Cc1ccc(NC(=O)N2CCSc3ncccc32)cc1)NCc1ccccc1 10.5%
CC1(C)CC(=O)c2cc(C(=O)Nc3ccc(Br)cc3)c(=O)[nH]c2C1 4.24%
CCN(C(=O)C1CCC(CNS(=O)(=O)c2cccc3nsnc23)CC1)c1ccccc1 (configuration not stated) 2.11%
CCN(C(=O)C1CCC(CNS(=O)(=O)c2cccc3nsnc23)CC1)c1cccc(C)c1 (configuration not stated) 2.15%
Cc1ccc(Oc2nc3c(c(=O)n(Cc4ccccc4)c(=O)n3C)n2C)cc1C 8.49%
Cc1ccc(COc2ccc3oc(-c4ccccc4)c(C(=O)O)c3c2)cc1 -6.3%
Cc1ccc(NC(=O)c2ccc(=O)n(CC(=O)Nc3c(C)cc(C)cc3C)n2)cc1 2.51%
CCOc1ccc(C2N3CC4(C(C)C)CN2CC(C(C)C)(C3)C4=O)cc1OC (configuration not stated) -9.54%
CCOc1ccccc1NC(=O)N(C)CCc1c(C)nn(CC)c1C 3.5%
O=C1CCc2ccc(OCCCCN3CCN(c4cccc(Cl)c4Cl)CC3)cc2N1 -10.6%
CCN(C(=O)Cn1c(SCC(=O)Nc2ccc(OC)cc2)nc2ccccc21)c1cccc(C)c1 -11.5%
CC(C)(C)c1ccc(C(=O)NNc2ncnc3c2cnn3-c2ccccc2)cc1 -34%
O=C(COc1ccccc1)NCC(c1cccs1)S(=O)(=O)c1ccc(Cl)cc1 (configuration not stated) 1.88%
COc1ccc(C(=O)N2CC(=O)Nc3ccc(C)cc3C2c2ccccc2)cc1OC (configuration not stated) 0.475%
COc1ccc(-n2nc(C(=O)Nc3ccc(Br)cc3C)c3c4ccccc4n(C)c3c2=O)cc1 1.27%
Cc1ccc2nc(-c3ccc(C)c(NC(=O)Cc4ccccc4)c3)oc2c1 2.95%
Cc1ccccc1CN1CCc2nc(N3CCN(c4ccccn4)CC3)ncc2C1 -31.5%
Cc1cc(C)cc(NS(=O)(=O)c2ccc3c(c2)OCC(C(=O)N2CCCC2)O3)c1 (configuration not stated) 7.97%
COc1ccc2nc3oc(C(=O)Nc4cccc(C(F)(F)F)c4)cc3cc2c1 6.29%
CCOc1ccc(NC(=O)CN(Cc2ccccc2)S(=O)(=O)c2ccc(Cl)cc2)cc1 -17.6%
Cc1c(C2=CCN(S(=O)(=O)c3ccc(Br)cc3)CC2)c2ccccc2n1CC(=O)N1CCCC1 10.6%
Cc1cccc(Nc2nc(C)nc(N)c2S(=O)(=O)c2ccccc2)c1 17.6%
Cc1c(Cl)cccc1NC(=O)c1ccc(NC(=O)N2CCSc3ncccc32)cc1 5.94%
Cc1ccccc1NC(=O)CS(=O)(=O)c1cccc2nsnc12 -11%
COc1ccc(NC(=O)CSc2c3c(nc4ccc(Cl)cc24)CCCC3)cc1Cl -11.7%
CCOc1ccc(C2C(C(=O)Nc3ccc(OC)cc3)=C(C)Nc3nc(SCc4ccc(Cl)cc4)nn32)cc1 (configuration not stated) 2.46%
O=C(Nc1ccc(Br)cc1)N1CCC(CN2CCCC2)CC1 13.7%
CCNC(=O)c1c(NC(=O)COc2ccc(F)cc2)sc2c1CCCC2 2.64%
CCc1c(C)sc2c1CCN(C(=O)Nc1ccccc1C(=O)OC)C2c1ccc(F)cc1 (configuration not stated) 7.65%
CCCC12CN3CC(C)(CN(C1)C3c1ccccc1Cl)C2=O (configuration not stated) 5.16%
O=C(c1ccc2c(c1)N(Cc1ccc(F)cc1)CCS2)N1CCN(c2ccccc2)CC1 2.08%
